Reference: PubChem BioAssay (NCATS)
Values joined by “and” are separate entries in the source; they are usually repeats but may differ in a detail not shown here. Identical values can stand only once. The inconclusive results got no clear call from the source; some entries with a clear call stand among them for comparison. For some assays here: Potencies of inconclusive entries are doubtful fits and often do not repeat. For some assays here: A note “side channel” means that the fit belongs to a control or component signal, not to the main read-out. Active and inactive are the calls of the source. Unless noted, calls come from the whole dose curve; as a rule, active = well fitted curve in the direction sought with a large enough effect; inconclusive = small, poorly fitted or top-dose-only effect, or another doubt; inactive = no such curve, though single readings can be large; an effect the other way counts as inactive or inconclusive.

Tests used:
[1] = qHTS to identify inhibitors of the type 1 interferon - major histocompatibility complex class I in skeletal muscle: primary screen against the NCATS Mechanism Interrogation Plate v5.0 (MIPE) Libary (AID 1347411); conditions: iHSKM cells + IFN-b, HiBiT-tagged MHC-I luminescence, 24 h; activity change, negative = inhibition: at 45.8 µM (top of the series); note: nearly all actives have a fitted effect of over 65% in size; note: potency is the fitted concentration of half-maximal effect;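 for activity change, negative = inhibition: plate controls were vehicle for no effect and reference inhibitor for full effect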
Procedure, shortened: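 Seed engineered human myoblasts (HLA-B HiBit) in medium without dexamethasone containing 4 ng/ml IFN-beta; after 1 hr add compound titrations (top 46 uM final). Incubate 24 hrs at 37 C, lyse 10 min with HiBiT reagent, read luminescence.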

[2] = Primary qHTS for inhibitors of nuclear receptor binding SET domain protein 2 (NSD2) in an isogenic RCH-ACV NSD2 p.E1099K mutant (9B) (AID 1645876); note: potency is the fitted concentration of half-maximal effect; nearly all actives have a fitted effect of over 70% in size
[3] = Primary qHTS for inhibitors of nuclear receptor binding SET domain protein 2 (NSD2) in an RCH-ACV wild type WT cells (2C) (AID 1645877); note: potency is the fitted concentration of half-maximal effect; nearly all actives have a fitted effect of over 70% in size
[4] = target: Mitogen-activated protein kinase 10 (Mus musculus) (UniProt Q61831); experiment: JNK3 AlphaScreen Assay (AID 530; active = well fitted curve in either direction with a large enough effect, not every such curve was filed as active; inconclusive = small, poorly fitted or top-dose-only effect, or another doubt;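 note: kinase came from lysate of stimulated human HepG2 cells; signal reports phosphorylation of biotinylated GST-cJun 1-79 at Ser73 with 10 µM ATP; potency is the fitted concentration of half-maximal effect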); conditions: JNK3 lysate, c-Jun phosphorylation; activity change, negative = inhibition: at 57.1 µM (top of the series)
Procedure, shortened: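 Activity was read by AlphaScreen after JNK3-containing HepG2 lysate (cytokine pre-activated) phosphorylated biotinylated GST-cJun with 10 uM ATP at room temperature. Phospho-Ser73 cJun antibody with Protein-A acceptor beads provided detection.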

[5] = Cell Viability - NIH 3T3 (AID 541); conditions: NIH 3T3 cell viability, qHTS; at 92.2 µM (top of the series);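 note: cells exposed to compound for 40 hours; plate controls were DMSO alone for no effect and tamoxifen positive control for full effect; nearly all actives have a fitted effect of over 25% in size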
Procedure, shortened: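 Cells seeded at 1000/well, rested 5 hr at 37 °C, then dosed and incubated 40 hr at 37 °C. CellTiter-Glo added, 20 min room temperature, luminescence read. AC50 by Hill fit.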

[6] = Cell Viability - HUV-EC-C (AID 542); conditions: HUV-EC-C endothelial cell viability, qHTS;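 note: potency is the fitted concentration of half-maximal effect; cells exposed to compound for 40 hours; nearly all actives have a fitted effect of over 35% in size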
Procedure, shortened: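 Cells were seeded at 1000 per well and incubated 5 hr at 37 °C before compound addition. After 40 hr at 37 °C, CellTiter-Glo reagent was added for 20 min and luminescence read. AC50 values came from Hill-equation modelling.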

[7] = Cell Viability - H-4-II-E (AID 543);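 note: potency is the fitted concentration of half-maximal effect; cells exposed to compound for 40 hours; nearly all actives have a fitted effect of over 35% in size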
Procedure, shortened: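 Cells seeded at 1500 per well and rested 5 hr; compounds added; 40 hr incubation at 37 °C; CellTiter-Glo added, 20 min at room temperature; luminescence read. Hill-equation fits gave AC50.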

[8] = Cellular Toxicity (caspase-3) Jurkat (AID 655); conditions: Jurkat caspase-3 activation, luminescence, DMSO = 0%, tamoxifen = 100%; at 92.2 µM (top of the series);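 note: cells exposed to compound for 16 h at 37 °C before reading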
Procedure, shortened: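 Luminescent Caspase-Glo 3/7 read-out (20 min, room temperature) after 16 h compound treatment at 37 C of 5000 Jurkat cells per well. AC50 derived by Hill-equation fitting, scaled between DMSO basal and 100 uM tamoxifen stimulation.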

[9] = Cell Viability - LYMP2-001 (AID 921); note: potency is the fitted concentration of half-maximal effect; nearly all actives have a fitted effect of over 70% in size
Procedure, shortened: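 Cellular ATP loss read by luciferase luminescence after 24 h compound exposure at 37 C in complete medium. LYMP2-001 lymphoblastoid cells, 2500/well; qHTS concentration-response data fitted with Hill equation for AC50.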

[10] = Cell Viability - LYMP1-003 - Assay at 40 hr (AID 964); conditions: LYMP1-003 lymphoblastoid viability; note: potency is the fitted concentration of half-maximal effect; nearly all actives have a fitted effect of over 60% in size
Procedure, shortened: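 Luminescent ATP signal (CellTiter-Glo) served as the viability read-out after 40 hr compound treatment of human lymphoblastoid LYMP1-003 cells at 37 C. Decreases in ATP were fitted with the Hill equation to give AC50.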

[11] = Cell Viability - LYMP2-008 (AID 980); conditions: LYMP2-008 lymphoblastoid cell viability, qHTS; at 92.2 µM (top of the series); note: % is set by controls: 0 for no effect and ±100 for the full control effect; nearly all actives have a fitted effect of over 60% in size
Procedure, shortened: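 Cells seeded at 2500/well and rested 5 hr at 37 C; compounds added over a concentration range and incubated 24 hr at 37 C; CellTiter-Glo added, 30 min at room temperature; luminescence read and AC50 fitted with Hill model.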

[12] = target: Peroxisome proliferator-activated receptor delta (Homo sapiens) (UniProt Q03181); experiment: qHTS assay for small molecule agonists of peroxisome proliferator-activated receptor delta signaling (AID 588534; calls by dose curve; note: potency is the fitted concentration of half-maximal effect;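 for activation: 0% = DMSO basal wells and 100% = positive control agonist at 10 µM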); conditions: HEK293T PPARdelta-UAS-bla, beta-lactamase ratio, 18 h; activation: at 76.7 µM (top of the series)
Procedure, shortened: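 Agonist-mode qHTS; reporter cells, 5 hrs 37 C pre-incubation; compound titration, 18 hrs 37 C; CCF4 dye, 2 hrs RT; fluorescence read. EC50/efficacy via Hill fit.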

[13] = target: Peroxisome proliferator-activated receptor delta (Homo sapiens) (UniProt Q03181); experiment: qHTS assay for small molecule antagonists of peroxisome proliferator-activated receptor delta signaling (AID 588535; active = well fitted inhibition curve with a large enough effect in the signal ratio, with a control signal flat, not every such curve was filed as active; inconclusive = small, poorly fitted or top-dose-only effect, or effect the other way, or a change in a side signal; inactive = no such curve, though single readings can be large or run the other way; the % refers to the signal ratio); conditions: HEK293T PPARd-UAS-bla, beta-lactamase FRET ratio, 18 h
Procedure, shortened: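 Fluorescence from CCF4-loaded GeneBLAzer PPAR-delta-UAS-bla HEK293T cells (2 hrs RT loading) quantified reporter inhibition after an 18 hr, 37 C compound exposure across a titration.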

[14] = target: Peroxisome proliferator-activated receptor gamma (Homo sapiens) (UniProt P37231); experiment: qHTS assay for small molecule agonists of peroxisome proliferator-activated receptor gamma signaling (AID 588536; active = well fitted curve in the direction sought with a large enough effect in the signal ratio, with a control signal flat, not every such curve was filed as active; inconclusive = small, poorly fitted or top-dose-only effect, or effect the other way, or a change in a side signal; inactive = no such curve, though single readings can be large or run the other way; the % refers to the signal ratio; note: potency is the fitted concentration of half-maximal effect;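 for activation: 0% = DMSO basal wells and 100% = rosiglitazone at 2 µM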); conditions: HEK293 PPARg-UAS-bla, beta-lactamase ratio, 16 h; activation: at 76.7 µM (top of the series), percent of rosiglitazone response, DMSO as zero
Procedure, shortened: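 Beta-lactamase reporter read-out: CCF4 fluorescence (ex 405, em 460/530 nm) after 2 h at RT. HEK293 GeneBLAzer cells were treated for 16 h at 37 C. Hill fits gave EC50 and efficacy versus 2 uM rosiglitazone (100%) and DMSO (0%).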

[15] = target: Peroxisome proliferator-activated receptor gamma (Homo sapiens) (UniProt P37231); experiment: qHTS assay for small molecule antagonists of peroxisome proliferator-activated receptor gamma signaling (AID 588537; active = well fitted inhibition curve with a large enough effect in the signal ratio, with a control signal flat, not every such curve was filed as active; inconclusive = small, poorly fitted or top-dose-only effect, or effect the other way, or a change in a side signal; the % refers to the signal ratio;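 note: reporter cells co-stimulated with 50 nM rosiglitazone agonist during compound treatment; % of control where 0% means no effect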); conditions: HEK293 PPARg-UAS-bla, beta-lactamase ratio, antagonist mode; activity, negative = inhibition: at 76.8 µM (top of the series)
Procedure, shortened: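 Fluorescence at 460 and 530 nm (405 nm excitation) reported beta-lactamase cleavage of CCF4 after 2 h room-temperature loading. HEK293 reporter cells in 1% charcoal/dextran-treated FBS had received compound and rosiglitazone for 16 h.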

[16] = target: Vitamin D3 receptor (Homo sapiens) (UniProt P11473); experiment: qHTS assay for small molecule agonists of vitamin D receptor signaling (AID 588543; calls by dose curve; note: potency is the fitted concentration of half-maximal effect); conditions: HEK293T VDR-UAS-bla, beta-lactamase ratio, 16 h; activation: at 76.8 µM (top of the series)
Procedure, shortened: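 Agonist-mode beta-lactamase reporter: HEK293T VDR-UAS-bla cells in charcoal-stripped 2% FBS, compound series 16 h 37 C, CCF4 2 h RT. EC50 from Hill fit, scaled against DMSO and 50 nM calcitriol control.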

[17] = target: Retinoic acid receptor RXR-alpha (Homo sapiens) (UniProt P19793); experiment: qHTS assay for small molecule agonists of retinoid X receptor alpha signaling (AID 588544; calls by dose curve; note: potency is the fitted concentration of half-maximal effect;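 for activation: 0% = DMSO basal wells and 100% = reference agonist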); conditions: HEK293T RXRa-UAS-bla, beta-lactamase reporter, 18 h; activation: at 76.7 µM (top of the series)
[18] = qHTS assay for small molecule agonists of the antioxidant response element (ARE) signaling pathway (AID 651741; active = well fitted activation curve with a large enough effect in the signal ratio; inconclusive = small, poorly fitted or top-dose-only effect, or effect the other way, or a change in a side signal; the % refers to the signal ratio; note: potency is the fitted concentration of half-maximal effect); conditions: HepG2 ARE-bla reporter, beta-lactamase FRET ratio, 16 h; activation: at 96 µM (top of the series)
Procedure, shortened: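 Stably integrated ARE-beta-lactamase reporter HepG2 cells; 16 h compound incubation, 37 C; LiveBLAzer FRET substrate 2 h at room temperature; fluorescence intensity.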

[19] = qHTS assay for small molecule disruptors of the mitochondrial membrane potential - 1 hr assay (AID 651754; calls by dose curve; note: % is set by controls: 0 for no effect and ±100 for the full control effect; nearly all actives have a fitted effect of over 35% in size); conditions: ratio change, negative = depolarisation: at 92.2 µM (top of the series)
Procedure, shortened: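 Loss of mitochondrial potential shifts the cationic dye from red mitochondrial aggregates to green cytoplasmic monomers. Cells (HepG2) are treated with compound for 1 hr before a 30 min dye incubation at 37C.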

[20] = qHTS assay for small molecule disruptors of the mitochondrial membrane potential - 5 hr assay (AID 651755; calls by dose curve; note: potency is the fitted concentration of half-maximal effect; nearly all actives have a fitted effect of over 40% in size); conditions: JC-1-type ratio dye; ratio change, negative = disruption: at 92.2 µM (top of the series)
Procedure, shortened: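 Read-out: ratiometric Mito-MPS fluorescence, green monomer (ex 490/em 535) vs red mitochondrial aggregate (ex 540/em 590). HepG2 cells treated 5 hr at 37C before 30 min dye loading.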

[21] = target: Tumor necrosis factor (Homo sapiens) (UniProt P01375); experiment: qHTS assay to identify small molecules that stimulate Tumor Necrosis Factor-alpha (TNF-alpha) secretion (AID 651757; active = well fitted curve in the direction sought with a large enough effect in the signal ratio; inconclusive = small, poorly fitted or top-dose-only effect, or a change in a side signal; inactive = no such curve, though single readings can be large or run the other way; the % refers to the signal ratio; note: 0% is about no effect); conditions: Human cells, HTRF 665/615 ratio; activation (TNF-alpha secretion): at 92.2 µM (top of the series)
Procedure, shortened: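 Human monocytic THP-1 cells are plated, treated with compound and held at 37 C for 17 hrs. Labeled anti-TNF-alpha antibody mixture is then added; after 3 hr at room temperature, TR-FRET signal reports secreted TNF-alpha.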

[22] = qHTS assay to identify small molecules that stimulate interleukin-8 (IL-8) secretion (AID 651758; active = well fitted activation curve with a large enough effect in the signal ratio; inconclusive = small, poorly fitted or top-dose-only effect, or effect the other way, or a change in a side signal; the % refers to the signal ratio; note: potency is the fitted concentration of half-maximal effect); conditions: HTRF ratio (665/615); activation: at 92.2 µM (top of the series)
Procedure, shortened: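 Compounds are added to THP-1 cells (2000 per well) and left 16 hrs at 37 C. A labeled anti-IL-8 antibody pair is then added, and IL-8 secretion is measured by time-resolved FRET after 1-3 hrs at room temperature.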

[23] = target: Phospholipid hydroperoxide glutathione peroxidase GPX4 (Homo sapiens) (UniProt P36969); experiment: Primary qHTS Assay for Inhibitors of Recombinant Selenoprotein Glutathione Peroxidase 4 (GPX4) (AID 1845192); note: potency is the fitted concentration of half-maximal effect; nearly all actives have a fitted effect of over 65% in size
Procedure, shortened: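 Steps: GPX4 plus compound, 30 min RT; add GR/GSH/NADPH master mix; start with cumene hydroperoxide; read 340/450 nm fluorescence at 0 and 15 min. Finals were 200 nM GPX4, 1 mM GSH, 0.5 mM CHP, 0.5 mM NADPH, 100 nM GR.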
Tags give direction and shape of the fitted curve or compound fluorescence and quenching.

Sequence of UniProt Q03181 (Q03181 whole entry, looked up): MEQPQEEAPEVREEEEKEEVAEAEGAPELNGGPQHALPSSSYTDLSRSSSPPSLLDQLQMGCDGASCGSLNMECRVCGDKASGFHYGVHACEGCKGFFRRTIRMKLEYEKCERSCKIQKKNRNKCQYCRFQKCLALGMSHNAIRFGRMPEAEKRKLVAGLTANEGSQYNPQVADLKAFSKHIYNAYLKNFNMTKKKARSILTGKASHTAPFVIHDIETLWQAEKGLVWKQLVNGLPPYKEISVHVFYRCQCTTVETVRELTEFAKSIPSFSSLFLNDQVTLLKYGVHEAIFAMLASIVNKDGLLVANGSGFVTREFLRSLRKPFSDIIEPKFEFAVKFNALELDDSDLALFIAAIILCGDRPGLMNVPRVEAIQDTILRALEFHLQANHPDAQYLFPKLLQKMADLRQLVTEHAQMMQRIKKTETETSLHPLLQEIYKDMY
Sequence of UniProt P19793 (P19793 whole entry, looked up): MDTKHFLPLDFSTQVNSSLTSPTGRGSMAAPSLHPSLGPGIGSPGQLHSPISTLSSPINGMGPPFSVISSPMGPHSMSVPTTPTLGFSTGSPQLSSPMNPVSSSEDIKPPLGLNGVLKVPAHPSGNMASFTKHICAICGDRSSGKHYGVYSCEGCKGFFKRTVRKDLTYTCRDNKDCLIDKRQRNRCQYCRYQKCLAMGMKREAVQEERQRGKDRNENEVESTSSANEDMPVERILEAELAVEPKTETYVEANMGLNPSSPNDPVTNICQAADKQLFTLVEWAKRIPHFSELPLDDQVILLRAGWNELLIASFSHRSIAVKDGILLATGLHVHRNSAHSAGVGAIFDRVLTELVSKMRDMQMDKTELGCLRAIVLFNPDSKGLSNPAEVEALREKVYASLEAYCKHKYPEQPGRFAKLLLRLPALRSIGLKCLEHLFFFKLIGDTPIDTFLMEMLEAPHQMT
Sequence of UniProt P01375 (P01375 whole entry, looked up): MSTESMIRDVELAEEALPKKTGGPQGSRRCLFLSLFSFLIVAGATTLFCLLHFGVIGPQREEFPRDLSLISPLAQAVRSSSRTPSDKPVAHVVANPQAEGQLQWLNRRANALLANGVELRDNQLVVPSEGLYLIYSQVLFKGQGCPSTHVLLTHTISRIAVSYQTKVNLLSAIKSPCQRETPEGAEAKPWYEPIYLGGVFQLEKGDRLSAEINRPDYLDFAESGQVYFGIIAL
Sequence of UniProt P36969 (P36969 whole entry, looked up): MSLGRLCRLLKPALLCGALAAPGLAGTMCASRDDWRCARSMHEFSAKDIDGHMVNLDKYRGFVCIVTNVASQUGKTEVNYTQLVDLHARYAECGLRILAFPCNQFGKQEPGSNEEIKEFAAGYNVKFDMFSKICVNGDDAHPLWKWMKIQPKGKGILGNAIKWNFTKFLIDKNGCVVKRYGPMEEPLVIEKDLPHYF

C[C@@H]1CC(=O)Nc2cccc(-c3cnn(C(C)(C)C)c3)c2N1
Potency [1]: inactive
Potency [2]: active: 6.61 µM

CCOC(=O)[C@@]1(CCCCCCOc2ccc(Cl)cc2)CO1
Potency [1]: inactive
Potency [2]: inconclusive: 23.5 µM [inhibitor, partial curve]
Potency [3]: inconclusive: 20.9 µM [inhibitor, partial curve, poor fit]

CO[C@H]1/C=C/O[C@@]2(C)Oc3c(C)c(O)c4c(O)c(c(/C=N/N5CCN(C)CC5)c(O)c4c3C2=O)NC(=O)/C(C)=C\C=C\[C@H](C)[C@H](O)[C@@H](C)[C@@H](O)[C@@H](C)[C@H](OC(C)=O)[C@@H]1C
Potency [4]: inconclusive: 39.8 µM [inhibitor, single point]
activity change, negative = cytotoxicity [5]: inconclusive: -35.8%
Potency [6]: inconclusive: 39.8 µM [falling, partial curve]
Potency [7]: inconclusive: 50.1 µM [falling, partial curve]
caspase-3 activation [8]: inactive: 2.16%
Potency [9]: inconclusive: 63.1 µM [cytotoxic, partial curve, poor fit]
Potency [10]: inconclusive: 50.1 µM [cytotoxic, partial curve, poor fit]
activity change, negative = cytotoxicity [11]: inactive: -16.1%
Potency [12]: inconclusive: 44.7 µM [side channel, rising, single point]
activation [12]: inconclusive: -16.9%
activity change, negative = inhibition ([13]; activity change, negative = inhibition: at 76.7 µM (top of the series)): inconclusive: -0.421%
activity change, negative = inhibition ([13]; at 76.7 µM (top of the series)): inactive: 25.9%
Potency [14]: inconclusive: 50.1 µM [cytotoxic, side channel]
activation [14]: inconclusive: -24.9%
activity, negative = inhibition [15]: inconclusive: -1.99% and inconclusive: -52.6%
Potency [16]: inconclusive: 22.4 µM [side channel, rising, partial curve, poor fit]
Potency [17]: inconclusive: 2.24 µM [activator, full curve, poor fit]
activation [17]: inconclusive: -23.8%
Potency [18]: active: 54.5 µM
ratio change, negative = depolarisation [19]: inconclusive: 0.762%
Potency [20]: inconclusive: 39.8 µM [cytotoxic, side channel, partial curve]
activation (TNF-alpha secretion) [21]: inconclusive: 0.404%
Potency [22]: inconclusive: 66.8 µM [inhibitor, single point]
Potency [1]: inconclusive: 16.5 µM [inhibitor, partial curve]
Potency [2]: inconclusive: 23.5 µM [inhibitor, single point]
Potency [3]: active: 16.6 µM
Potency [23]: inconclusive: 22.7 µM [inhibitor, single point]
